Data taken from the supplement of paper PMC4996465.
Viability of KB3-1 and Nalm-6 cells after 48 h of drug alone (CellTiter-Glo), 11 doses over about 4.5 log units. % of DMSO wells, lower = more cell loss; AC50 from the fitted curve, lower = more potent. No active / inactive call. Nalm-6 was screened in two runs. AC50 is listed only for well-fitted inhibitory curves. KB3-1 is a HeLa-derived carcinoma line, Nalm-6 a B-cell precursor leukaemia line.

Columns and labels:
Nalm-6 [1] = assay: viability (% of DMSO control); higher = more viable cells
Method: (§1)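 Eleven-dose screen of the NCATS MIPE 3 library on cells without co-treatment; CellTiter-Glo after 48 h, as % of DMSO wells.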

KB3-1 [2] = assay: as above
Method: as §1

Nalm-6 [3] = assay: log AC50 of viability decrease (48 h) (log10 M); higher = less potent
Method: (§2)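 Eleven-dose screen of the NCATS MIPE 3 library on cells without co-treatment; CellTiter-Glo after 48 h. AC50 from the curve fit; only inhibitory curves of the better fit classes are listed.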

KB3-1 [4] = assay: as above
Method: as §2

SMILES | viability (Nalm-6 [1]; run: 1, 0.00078 µM) [%] | viability (Nalm-6 [1]; run: 1, 0.00234 µM) [%] | viability (Nalm-6 [1]; run: 1, 0.00702 µM) [%] | viability (Nalm-6 [1]; run: 1, 0.0211 µM) [%] | viability (Nalm-6 [1]; run: 1, 0.0632 µM) [%] | viability (Nalm-6 [1]; run: 1, 0.19 µM) [%] | viability (Nalm-6 [1]; run: 1, 0.569 µM) [%] | viability (Nalm-6 [1]; run: 1, 1.71 µM) [%] | viability (Nalm-6 [1]; run: 1, 5.12 µM) [%] | viability (Nalm-6 [1]; run: 1, 15.4 µM) [%] | viability (Nalm-6 [1]; run: 1, 46.1 µM) [%] | viability (Nalm-6 [1]; run: 2, 0.00078 µM) [%] | viability (Nalm-6 [1]; run: 2, 0.00234 µM) [%] | viability (Nalm-6 [1]; run: 2, 0.00702 µM) [%] | viability (Nalm-6 [1]; run: 2, 0.0211 µM) [%] | viability (Nalm-6 [1]; run: 2, 0.0632 µM) [%] | viability (Nalm-6 [1]; run: 2, 0.19 µM) [%] | viability (Nalm-6 [1]; run: 2, 0.569 µM) [%] | viability (Nalm-6 [1]; run: 2, 1.71 µM) [%] | viability (Nalm-6 [1]; run: 2, 5.12 µM) [%] | viability (Nalm-6 [1]; run: 2, 15.4 µM) [%] | viability (Nalm-6 [1]; run: 2, 46.1 µM) [%] | viability (KB3-1 [2]; 0.00078 µM) [%] | viability (KB3-1 [2]; 0.00234 µM) [%] | viability (KB3-1 [2]; 0.00702 µM) [%] | viability (KB3-1 [2]; 0.0211 µM) [%] | viability (KB3-1 [2]; 0.0632 µM) [%] | viability (KB3-1 [2]; 0.19 µM) [%] | viability (KB3-1 [2]; 0.569 µM) [%] | viability (KB3-1 [2]; 1.71 µM) [%] | viability (KB3-1 [2]; 5.12 µM) [%] | viability (KB3-1 [2]; 15.4 µM) [%] | viability (KB3-1 [2]; 46.1 µM) [%] | log AC50 of viability decrease (Nalm-6 [3]; run: 1) | log AC50 of viability decrease (Nalm-6 [3]; run: 2) | log AC50 of viability decrease (KB3-1 [4])
O=C(Nc1ccc(OC(F)(F)F)cc1)c1sccc1NCc1ccnc2ccccc12 [OSI-930] | 126 | 118 | 122 | 119 | 117 | 111 | 101 | 109 | 89.7 | 64.2 | 10.2 | 109 | 114 | 106 | 111 | 112 | 104 | 99.8 | 95.9 | 94.7 | 70.2 | 1.96 | 103 | 106 | 107 | 108 | 110 | 108 | 108 | 105 | 100 | 95.4 | 72 | -4.68 | -4.73 | -4.73
Cc1cn2c(-c3cn[nH]c3)cnc2c(Nc2ccc(C(=O)N3CCNCC3)cc2F)n1 | 98.3 | 101 | 107 | 114 | 104 | 102 | 120 | 109 | 102 | 88.8 | 38.7 | 102 | 112 | 107 | 105 | 109 | 102 | 93.3 | 98.1 | 95.3 | 78 | 23.5 | 98.1 | 104 | 98.8 | 104 | 99.7 | 102 | 97.9 | 98.3 | 82.3 | 62.8 | 42 | -4.68 | -4.73 | -4.88
COc1cc2ncnc(Nc3ccc(F)c(Cl)c3)c2cc1NC(=O)/C=C/CN1CCCCC1 [Dacomitinib] | 122 | 114 | 112 | 124 | 120 | 115 | 103 | 98.9 | 58.7 | 43 | -1.49 | 118 | 112 | 113 | 116 | 112 | 108 | 113 | 103 | 53.2 | 43.1 | -0.626 | 99.3 | 100 | 96.4 | 96 | 96.3 | 97.8 | 96.6 | 93.9 | 72.4 | 55.9 | -0.968 | -4.88 | -5.03 | -4.73
COc1cc2ncnc(-n3nc(-c4ccccn4)nc3N)c2cc1OC | 98 | 104 | 112 | 104 | 98 | 100 | 97.1 | 76.6 | 37.7 | 25.1 | 8.45 | 105 | 109 | 112 | 113 | 97.6 | 111 | 98.1 | 74.4 | 44.3 | 19.9 | 4.6 | 92.6 | 95.6 | 91.4 | 91.7 | 94.9 | 93.2 | 92.3 | 80 | 56.7 | 45.9 | 32.1 | -5.48 | -5.43 | -5.38
CC(C)n1c(/C=C/[C@H](O)C[C@H](O)CC(=O)[O-])c(-c2ccc(F)cc2)c2ccccc21 [Fluvastatin] | 90.6 | 94.3 | 96.8 | 100 | 89.5 | 106 | 112 | 99.8 | 85.2 | 54.5 | 55 | 94.7 | 101 | 94.2 | 97.8 | 96.3 | 102 | 95.8 | 95.4 | 78 | 25.5 | 17.5 | 91.4 | 99 | 98.1 | 101 | 97.8 | 101 | 99.8 | 95.8 | 84.3 | 39.5 | 29.9 | -5.18 | -5.08 | -5.03
Cc1cccc(/C=N/Nc2cc(N3CCOCC3)nc(OCCc3ccccn3)n2)c1 [Apilimod] | 116 | 120 | 103 | 110 | 111 | 85.2 | 78.6 | 71.9 | 67.4 | 62.6 | 1.17 | 107 | 105 | 98.7 | 105 | 94.7 | 70.8 | 63.6 | 55.5 | 45 | 38.2 | -0.554 | 104 | 106 | 105 | 114 | 110 | 105 | 105 | 103 | 99.3 | 93.2 | 46.1 | -4.83 | -5.33 | -4.68
CC(C)Oc1cc(Nc2nc(N[C@@H](C)c3ccc(F)cn3)ncc2Cl)n[nH]1 [AZ-23] | 113 | 115 | 118 | 122 | 112 | 114 | 94.8 | 95.4 | 74 | 66.5 | 2.16 | 106 | 103 | 108 | 97.7 | 103 | 104 | 95.9 | 99.1 | 83.1 | 71.7 | 1.66 | 107 | 92.4 | 105 | 103 | 99.7 | 97.5 | 95.3 | 94.1 | 87.9 | 67.1 | 16.2 | -4.78 | -4.68 | -4.68
CN1CC[C@H]([C@@H](O)C1)C2=C(O)C=C(O)C3=C2O\C(=C/C3=O)C4=CC=CC=C4Cl [Flavopiridol???] | 120 | 119 | 106 | 87.9 | 18 | 11.6 | 16.4 | 15.9 | 17.1 | 19 | 12.6 | 108 | 108 | 98.1 | 49.7 | 8.88 | 10 | 17.1 | 12.5 | 18.5 | 17.8 | 20.8 | 105 | 103 | 104 | 93.8 | 48.6 | 25.9 | 25.9 | 24.9 | 24.8 | 22.8 | 24.4 | -7.58 | -7.78 | -7.33
CN(C)CCCN\C1=C\2C(=O)N(C)C(=O)\N=C2N(C)C3=C1C=CC=C3 | 111 | 112 | 109 | 117 | 108 | 116 | 124 | 107 | 76.9 | 56.3 | 19.6 | 102 | 102 | 104 | 107 | 99.2 | 102 | 101 | 101 | 79.9 | 13.1 | 20.5 | 103 | 102 | 104 | 105 | 99.8 | 98.3 | 103 | 92.7 | 54.7 | 43.4 | 14.7 | -4.93 | -5.13 | -5.13
CC[C@H](CO)Nc1nc(NCc2ccccc2)c2ncn(C(C)C)c2n1 [Seliciclib] | 126 | 109 | 109 | 111 | 117 | 114 | 115 | 111 | 98.3 | 73.7 | 3.39 | 111 | 114 | 112 | 110 | 113 | 113 | 110 | 121 | 109 | 80.1 | 0.803 | 104 | 98.1 | 98.2 | 102 | 106 | 102 | 98.9 | 97.5 | 91.2 | 86.3 | 21.5 | -4.68 | -4.68 | -4.63
NC(=O)Nc1cc(-c2cccc(F)c2)sc1C(=O)N[C@H]1CCCNC1 [AZD-7762] | 104 | 112 | 103 | 98.5 | 65.8 | 29.2 | 10.8 | 6.56 | 5.86 | 6.26 | -0.133 | 107 | 106 | 98.4 | 101 | 70.2 | 33.9 | 9.31 | 5.38 | 6.4 | 5.01 | -0.703 | 103 | 105 | 93.5 | 88.6 | 91.1 | 73.3 | 54.9 | 32.2 | 14.6 | 13.6 | 8.96 | -7.08 | -6.98 | -6.23
C=CC(=O)Nc1cc2c(Nc3ccc(F)c(Cl)c3)ncnc2cc1C#CC(C)(C)N1CCN(C)CC1 [AV-412] | 120 | 129 | 125 | 127 | 122 | 109 | 86.8 | 30.9 | 2.24 | 1.09 | -0.922 | 107 | 111 | 113 | 103 | 101 | 95.5 | 70.1 | 21.9 | 1.05 | 0.668 | -0.051 | 102 | 106 | 102 | 104 | 97.8 | 101 | 103 | 95.8 | 81 | 49.5 | -0.184 | -6.03 | -6.08 | -4.78
C[C@@H]1CN[C@H]2[C@@H](C)[C@@]\3(CC[C@H]\4[C@@H]5C/C=C6/C[C@@H](O)CC[C@]6(C)[C@H]5CC4=C3C)O[C@@H]2C1 [Cyclopamine] | 92.2 | 97.6 | 98.4 | 102 | 103 | 114 | 95.1 | 96.8 | 82.2 | 85.1 | 0.848 | 102 | 104 | 99.8 | 110 | 104 | 105 | 101 | 93 | 84.9 | 85.4 | 0.414 | 100 | 97.7 | 93.2 | 103 | 102 | 97.6 | 101 | 95.3 | 88.2 | 87.5 | 62.9 | -4.58 | -4.63 | -4.68
CCOC\1=C(/C(=O)NC2=CC=C(OC3=C(Cl)C(=NC=C3)N)C(=C2)F)C(=O)N(\C=C1)C4=CC=C(F)C=C4 | 116 | 123 | 119 | 112 | 123 | 125 | 109 | 82.7 | 79.4 | 68 | 32.9 | 112 | 110 | 113 | 110 | 102 | 101 | 102 | 91.6 | 87.2 | 71.9 | 35.5 | 102 | 106 | 102 | 99.2 | 108 | 98.2 | 99.2 | 102 | 96.4 | 91.1 | 39.9 | -5.23 | -4.73 | -4.63
